# Assay results as given in the supplement of paper PMC8728848.
# This is one part of the list.
# Key:
# Experiment in all cases: glycan array binding signal (z-score within array); higher = stronger binding
# Details in all cases: glycan notation: IUPAC condensed, linker removed
# [1] = target: Fuc(a1-2)Gal(b1-4)GlcNAc(b1-3)Gal(b1-4)GlcNAc(b1-2)Man(a1-3)[Fuc(a1-2)Gal(b1-4)GlcNAc(b1-3)Gal(b1-4)GlcNAc(b1-2)Man(a1-6)]Man(b1-4)GlcNAc(b1-4)GlcNAc
# Method in brief: (§1)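 Arrays were curated from the Consortium for Functional Glycomics database, 3228 in total, and kept only where the protein sequence was available. Binding is expressed as a within-array Z-score. This score was averaged across arrays of the same protein sequence at different concentrations or buffers and across linkers, and negative values can be read as non-binding.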
# [2] = target: Fuc(a1-2)Gal(b1-4)GlcNAc(b1-3)Gal(b1-4)GlcNAc(b1-3)Gal(b1-4)GlcNAc
# Method in brief: as §1
# [3] = target: Fuc(a1-2)Gal(b1-4)GlcNAc(b1-3)GalNAc
# Method in brief: as §1
# [4] = target: Fuc(a1-2)Gal(b1-4)GlcNAc(b1-3)[Fuc(a1-2)Gal(b1-4)GlcNAc(b1-6)]GalNAc
# Method in brief: as §1
# [5] = target: Fuc(a1-2)Gal(b1-4)GlcNAc(b1-3)[Fuc(a1-3)[Gal(b1-4)]GlcNAc(b1-6)]Gal(b1-4)Glc
# Method in brief: as §1
# [6] = target: Fuc(a1-2)Gal(b1-4)GlcNAc(b1-6)GalNAc
# Method in brief: as §1
# [7] = target: Fuc(a1-2)Gal(b1-4)GlcNAc6S
# Method in brief: as §1
# [8] = target: Fuc(a1-2)Gal(b1-4)[Fuc(a1-3)]GlcNAc
# Method in brief: as §1
# [9] = target: Fuc(a1-2)Gal(b1-4)[Fuc(a1-3)]GlcNAc(b1-2)Man(a1-3)[Fuc(a1-2)Gal(b1-4)[Fuc(a1-3)]GlcNAc(b1-2)Man(a1-6)]Man(b1-4)GlcNAc(b1-4)[Fuc(a1-6)]GlcNAc
# Method in brief: as §1
# [10] = target: Fuc(a1-2)Gal(b1-4)[Fuc(a1-3)]GlcNAc(b1-2)[Fuc(a1-2)Gal(b1-4)[Fuc(a1-3)]GlcNAc(b1-4)]Man(a1-3)[Fuc(a1-2)Gal(b1-4)[Fuc(a1-3)]GlcNAc(b1-2)Man(a1-6)]Man(b1-4)GlcNAc(b1-4)GlcNAc
# Method in brief: as §1
# [11] = target: Fuc(a1-2)Gal(b1-4)[Fuc(a1-3)]GlcNAc(b1-3)Gal(b1-4)[Fuc(a1-3)]GlcNAc
# Method in brief: as §1
# [12] = target: Fuc(a1-2)Gal(b1-4)[Fuc(a1-3)]GlcNAc(b1-3)Gal(b1-4)[Fuc(a1-3)]GlcNAc(b1-3)Gal(b1-4)[Fuc(a1-3)]GlcNAc
# Method in brief: as §1
# [13] = target: Fuc(a1-2)Gal(b1-4)[Fuc(a1-3)]GlcNAc(b1-3)GalNAc
# Method in brief: as §1
# [14] = target: Fuc(a1-2)Gal(b1-4)[Fuc(a1-3)]GlcNAc(b1-3)[Neu5Ac(a2-6)Gal(b1-4)GlcNAc(b1-6)]Gal(b1-4)Glc
# Method in brief: as §1
# [15] = target: Fuc(a1-2)Gal3S(b1-4)GlcNAc
# Method in brief: as §1
# [16] = target: Fuc(a1-2)Gal6S(b1-3)GlcNAc
# Method in brief: as §1
# [17] = target: Fuc(a1-2)Gal6S(b1-3)GlcNAc6S
# Method in brief: as §1
# [18] = target: Fuc(a1-2)Gal6S(b1-4)Glc
# Method in brief: as §1
# [19] = target: Fuc(a1-2)Gal6S(b1-4)Glc6S
# Method in brief: as §1
# [20] = target: Fuc(a1-2)[Gal(a1-3)]Gal
# Method in brief: as §1
# [21] = target: Fuc(a1-2)[Gal(a1-3)]Gal(b1-3)GalNAc
# Method in brief: as §1
# [22] = target: Fuc(a1-2)[Gal(a1-3)]Gal(b1-3)GalNAc(b1-3)Gal(a1-4)Gal(b1-4)Glc
# Method in brief: as §1
# [23] = target: Fuc(a1-2)[Gal(a1-3)]Gal(b1-3)GlcNAc
# Method in brief: as §1
# [24] = target: Fuc(a1-2)[Gal(a1-3)]Gal(b1-3)GlcNAc(b1-2)Man(a1-3)[Fuc(a1-2)[Gal(a1-3)]Gal(b1-3)GlcNAc(b1-2)Man(a1-6)]Man(b1-4)GlcNAc(b1-4)GlcNAc
# Method in brief: as §1
# [25] = target: Fuc(a1-2)[Gal(a1-3)]Gal(b1-3)GlcNAc(b1-2)Man(a1-3)[Fuc(a1-2)[Gal(a1-3)]Gal(b1-3)GlcNAc(b1-2)Man(a1-6)]Man(b1-4)GlcNAc(b1-4)[Fuc(a1-6)]GlcNAc
# Method in brief: as §1
# [26] = target: Fuc(a1-2)[Gal(a1-3)]Gal(b1-3)GlcNAc(b1-3)GalNAc
# Method in brief: as §1
# [27] = target: Fuc(a1-2)[Gal(a1-3)]Gal(b1-3)GlcNAc(b1-6)GalNAc
# Method in brief: as §1
# [28] = target: Fuc(a1-2)[Gal(a1-3)]Gal(b1-4)Glc
# Method in brief: as §1
# [29] = target: Fuc(a1-2)[Gal(a1-3)]Gal(b1-4)GlcNAc
# Method in brief: as §1
# [30] = target: Fuc(a1-2)[Gal(a1-3)]Gal(b1-4)GlcNAc(b1-2)Man
# Method in brief: as §1
binder,measurement,setting,value
DC-ASGPR S+GEE (Homo sapiens) (protein) MTRTYENFQYLENKVKVQGFKNGPLPLQSLLQRLRSGPCHLLLSLGLGLLLLVIICVVGFQNSKFQRDLVTLRTDFSNFTSNTVAEIQALTSQGSSLEETIASLKAEVEGFKQERQAVHSEMLLRVQQLVQDLKKLTCQVATINNNGEEASTEGTCCPVNWVEHQDSCYWFSHSGMSWAEAEKYCQLKNAHLVVINSREEQNFVQKYLGSAYTWMGLSDPEGAWKWVDGTDYATGFQNWKPGQPDDWQGHGLGGGEDCAHFHPDGRWNDDVCQRPYHWVCEAGLGQTSQESH,glycan array binding signal (z-score),[1],-0.277
same,glycan array binding signal (z-score),[2],-0.337
same,glycan array binding signal (z-score),[3],-0.306
same,glycan array binding signal (z-score),[4],0.072
same,glycan array binding signal (z-score),[5],-0.418
same,glycan array binding signal (z-score),[6],3.59
same,glycan array binding signal (z-score),[7],-0.335
same,glycan array binding signal (z-score),[8],-0.28
same,glycan array binding signal (z-score),[9],-0.252
same,glycan array binding signal (z-score),[10],-0.252
same,glycan array binding signal (z-score),[11],-0.242
same,glycan array binding signal (z-score),[12],-0.276
same,glycan array binding signal (z-score),[13],-0.257
same,glycan array binding signal (z-score),[14],-0.34
same,glycan array binding signal (z-score),[15],0.085
same,glycan array binding signal (z-score),[16],-0.326
same,glycan array binding signal (z-score),[17],0.226
same,glycan array binding signal (z-score),[18],-0.337
same,glycan array binding signal (z-score),[19],0.235
same,glycan array binding signal (z-score),[20],-0.286
same,glycan array binding signal (z-score),[21],-0.301
same,glycan array binding signal (z-score),[22],-0.348
same,glycan array binding signal (z-score),[23],-0.309
same,glycan array binding signal (z-score),[24],-0.338
same,glycan array binding signal (z-score),[25],-0.128
same,glycan array binding signal (z-score),[26],-0.31
same,glycan array binding signal (z-score),[27],3.42
same,glycan array binding signal (z-score),[28],-0.391
same,glycan array binding signal (z-score),[29],0.03
same,glycan array binding signal (z-score),[30],-0.264
